About 800 (1.6%) of roughly 50,000 compounds showed an effect of 50% or more. Some of the results follow.
The compounds below were run against Bcl-2-like protein 10 (Homo sapiens) (UniProt Q9HD36) (assay: Phenotype converters, Bcl-B/TR3 peptide binding displacement, primary biochemical FP (AID 1240;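 note: 0% = Bcl-B with tracer peptide and DMSO and 100% = tracer peptide lacking Bcl-B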)). Conditions: GST-Bcl-B / FITC-TR3 peptide fluorescence polarization; stronger effect = higher value; compound at 3.75 mg/L.
Sequence of UniProt Q9HD36 (Q9HD36 whole entry, looked up): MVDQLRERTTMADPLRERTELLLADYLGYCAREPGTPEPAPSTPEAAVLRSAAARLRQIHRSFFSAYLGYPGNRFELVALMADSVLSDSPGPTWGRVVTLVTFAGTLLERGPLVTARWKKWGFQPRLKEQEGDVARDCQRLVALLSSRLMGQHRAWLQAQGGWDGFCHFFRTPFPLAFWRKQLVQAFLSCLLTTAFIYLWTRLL
With Cc1nnc(SCC(=O)c2ccc(Cl)cc2Cl)s1 the displacement was -1.6%. COc1cccc(NC(=O)c2cc(Br)ccc2I)c1 showed a displacement of 3%. For CCOC(=O)C(=O)CSc1ncnc2nc[nH]c12, the displacement was 3.9%. With NC(=O)NC(c1ccccc1)c1ccccc1 the displacement was 6.6%. O=C(Nc1ccc(I)cc1)C1CCCN1C(=O)Oc1ccccc1 (stereo not drawn) gave a displacement of 2.5%. O=C(c1ccccc1)c1ccc(N2CCCC2)c(F)c1 gave a displacement of -18.9%. With COC(=O)COc1ccc(/C=C2\C(=O)NC(=S)N(c3ccc(Br)cc3)C2=O)cc1OC the displacement was -0.2%. CCCS(=O)(=O)c1c(S(=O)(=O)CCC)c2ccc(C(C)=O)cn2c1C(=O)c1ccc(Br)cc1 was tested, and the displacement was -6.6%. O=[N+]([O-])c1ccc2c(c1)C1C=CCC1C(c1ccc(F)cc1)N2 (stereo not drawn) showed a displacement of 6.7%. COc1cccc(NC(=O)C(C)Oc2ccc(Cl)cc2Cl)c1 (stereo not drawn) showed a displacement of -6.5%. O=C(N/N=C/c1ccccc1[N+](=O)[O-])/C(=C\c1ccc2c(c1)OCO2)NC(=O)c1ccccc1 gave a displacement of -11.2%. Compound CC(C)(C)C1CCc2c(sc3ncn(N)c(=N)c23)C1 (stereo not drawn) has a displacement of -3.2%. In the case of O=C(CC(=O)c1ccccc1)CC(=O)c1ccccc1, the displacement is reported as -4.2%. With c1ccc(CC2=NNC(c3ccccc3)S2)cc1 (stereo not drawn) the displacement was -1.4%. Compound CCN(CC)c1ccc(C(=O)NCc2ccccn2)cc1 has a displacement of 0.8%. COc1ccc(C/C(N)=N/OC(=O)c2ccco2)cc1OC was tested, and the displacement was 2%. Work on CCCCCC(=O)N/N=C/c1ccccc1 yielded a displacement of -13.5%. Compound Cc1ccc(/C(N)=N/OC(=O)c2ccc([N+](=O)[O-])cc2)cc1 has a displacement of 8.5%. O=S(=O)(Nc1ccc(N2CCOCC2)cc1)c1ccc(Cl)cc1 was tested, and the displacement was 12.2%. Work on O=S(=O)(c1ccc(NC(=S)Nc2ccccc2)cc1)N1CCCCCC1 yielded a displacement of -5.7%. Compound CCc1nnc(NC(=O)c2ccccc2F)s1 has a displacement of -3.5%. Work on Cc1c(NC(=O)CCCN2C(=O)/C(=C/c3ccccc3)SC2=S)c(=O)n(-c2ccccc2)n1C yielded a displacement of 1.5%. Work on CC(C)(C)N1C(=O)c2ccc(C(=O)Nc3c[nH]c(=O)[nH]c3=O)cc2C1=O yielded a displacement of -1.6%. CCC(=O)Nc1ccc(NC(=O)COc2cc(C)ccc2C(C)C)cc1 showed a displacement of 12.9%. Cc1nnc(NC(=O)CSCCSCC(=O)Nc2nnc(C)s2)s1 showed a displacement of -27.1%. O=C(Nc1ccc(Cl)cn1)c1ccc(I)cc1 showed a displacement of 11.8%. Work on CCOc1ccc(Nc2cc(=O)n(C)c(=O)n2C)cc1 yielded a displacement of -4.6%. For Cc1ccc(OCC(=O)Nc2cccc(C)n2)cc1, the displacement was -6.4%. Cn1c(CNc2ccccc2O)nc2ccccc21 was tested, and the displacement was 0.7%. COc1nc(-c2ccccc2)c2cc(Cl)ccc2n1 was tested, and the displacement was -0.4%. Work on COc1ccc(NS(=O)(=O)c2ccc(Cl)c(C(=O)Nc3cccc(C(=O)O)c3)c2)cc1 yielded a displacement of -17.3%. In the case of COc1ccc(CN2CCN(C3CCCCC3)CC2)cc1OCc1ccccc1, the displacement is reported as -12.7%. Work on Cc1ccccc1OCc1nnc(Sc2nc3ccc([N+](=O)[O-])cc3s2)n1-c1ccccc1 yielded a displacement of 7.3%. Work on On1c(-c2ccccc2F)nc2c1CCc1nonc1-2 yielded a displacement of -6.7%. In the case of COc1ccc(-n2c(C)ccc2-c2ccccc2)cn1, the displacement is reported as 46.2%. COCCN1C(=O)C(=O)/C(=C(/O)c2ccccc2)C1c1cccc([N+](=O)[O-])c1 (stereo not drawn) was tested, and the displacement was 5.5%. In the case of C=CCN1C(=O)/C(=C/c2ccc(C)cc2)C(=O)NC1=S, the displacement is reported as -5.3%. COC(=O)c1cccc(N2C(=O)c3ccc(Oc4ccc([N+](=O)[O-])cc4)cc3C2=O)c1 gave a displacement of 9.1%. For CCOc1ccccc1NC(=O)c1c(N)sc2c1CCC2, the displacement was -22.9%. For CCN(CC)C(=O)C(=O)N/N=C/c1cccc(OC)c1, the displacement was 13.3%. Cc1cc(C(=O)N/N=C/c2c(C)nn(-c3ccccc3)c2C)n[nH]1 showed a displacement of -4%. Work on Cc1cc(Br)cc2c1NC(=O)C21OCCO1 yielded a displacement of -4.3%. CCOC(=O)N1CCN(C2CC(=O)N(c3ccc(Cl)cc3)C2=O)CC1 (stereo not drawn) was tested, and the displacement was 1.1%. With COc1ccc(OC)c(N(CC(=O)N2CCOCC2)S(C)(=O)=O)c1 the displacement was 2.8%. Work on CCc1ccc(NC(=O)c2cc3n(n2)C(C(F)(F)F)CC(c2ccc(Cl)cc2)N3)cc1 (stereo not drawn) yielded a displacement of 7.5%. Compound COc1ccc(N2C(=O)NC(=O)/C(=C\c3cccc(OC)c3OC)C2=O)cc1 has a displacement of 14%. CCCC(C)NC(=O)c1ccc(F)cc1 (stereo not drawn) showed a displacement of 1.4%. Cc1cccc(C(=O)N2CCC(C)CC2)c1 gave a displacement of -3.2%. Cc1cc(Nc2ccc(N)c(C)c2)ccc1N showed a displacement of -5.7%. CCOC(=O)/C(=C(/C)NCc1ccccc1)c1c(O)cc(Br)c(O)c1Br gave a displacement of 12.1%. Work on CCOC(=O)c1ccc(N2COc3ccc4ccccc4c3C2)cc1 yielded a displacement of 8.7%. Cc1ccc(S(=O)(=O)Nc2cc(C)c(O)c(C)c2)cc1 showed a displacement of 2.2%. O=C(Nc1cccc(Cl)c1)Nc1nc2ccc(Br)cc2s1 was tested, and the displacement was -4.4%. In the case of CCn1c2ccccc2c2cc(CN3CCN(C(=O)c4ccc([N+](=O)[O-])cc4)CC3)ccc21, the displacement is reported as -3%. O=C(N/N=C/c1ccco1)C(=O)N1CCCC1 was tested, and the displacement was -15.2%. COc1ccc(CCN=CC2=C(O)c3ccccc3C2=O)cc1 showed a displacement of 1.9%. CC1=C(C(=O)OC(C)C)C(c2ccccn2)C2=C(CC(C)(C)CC2=O)N1 (stereo not drawn) showed a displacement of 4.4%. Compound O=C(CSc1nc2sc3c(c2c(=O)n1-c1ccccc1)CCCC3)NCCc1ccccc1 has a displacement of 1.7%. Work on CC(=O)Oc1ccc(C(=O)O)c(OC(C)=O)c1 yielded a displacement of 11.7%. For Nc1ccc2nc(SCC(=O)NCCOc3ccc(Cl)cc3)sc2c1, the displacement was -5.6%. CN1CCN(Cc2cc(CSc3ccccc3)c3cccnc3c2O)CC1 gave a displacement of 49%. With COc1ccc(OC)c(C2NC(c3cc(OC)ccc3OC)C(C)C(O)(c3ccc(F)cc3)C2C)c1 (stereo not drawn) the displacement was 15.5%. CSc1nnc2c(n1)OC(C(=O)c1ccccc1)Nc1ccccc1-2 (stereo not drawn) was tested, and the displacement was 13.5%. In the case of Cc1cccc(CN2CCN(C(=O)c3ccc([N+](=O)[O-])cc3)CC2)c1, the displacement is reported as -6.5%. O=C(NCCO)C(=O)NCc1ccco1 showed a displacement of 2.7%. O=C1CC(Nc2ccc(F)cc2)C(=O)N1c1ccc(Br)cc1 (stereo not drawn) showed a displacement of 3.6%. For COc1ccc(C(NC(=O)c2cccc(C)c2)NC(=O)c2cccc(C)c2)cc1OC, the displacement was -5.8%. COc1ccc(/C(C)=N\N2CCN(Cc3ccccc3Cl)CC2)cc1OC showed a displacement of -8.1%. For CCOc1ccccc1C(=O)Nc1ccc(C(=O)OCC(C)C)cc1, the displacement was 11.1%. With O=C1C(Cl)=C(Nc2ccccc2F)C(=O)N1c1ccc(Cl)cc1 the displacement was 4.3%. O=C(CCCN1C(=O)c2cccc3cccc(c23)C1=O)Nc1cccc2ccccc12 was tested, and the displacement was 5%. Compound O=C(Nc1ccc2c(c1)C(=O)N(c1ccccc1)C2=O)c1ccc2c(c1)C(=O)N(c1ccccc1)C2=O has a displacement of 6.7%. With O=C(NC1CCCC1)c1cc2ccccc2oc1=O the displacement was -12.3%. O=C1/C(=C/c2c[nH]c3ccccc23)CC/C1=C\c1c[nH]c2ccccc12 showed a displacement of -74.6%. O=C(Nc1cccc([N+](=O)[O-])c1)C1CC1(c1ccccc1)c1ccccc1 (stereo not drawn) gave a displacement of 2.9%. For Cc1ccccc1C1C2=C(CC(C)(C)CC2=O)NC2=C1C(=O)CC(C)(C)C2, the displacement was 12.1%. With COC(=O)C1=C(C(=O)OC)SC(=C2C(=S)C(C)(C)N(C(=O)C(C)C)c3cc(C)ccc32)S1 the displacement was 8.5%. With CC(C)(C)c1ccc(CC2CC2(Cl)Cl)c([N+](=O)[O-])c1 (stereo not drawn) the displacement was 0.3%. COc1ccc2oc(-c3ccccc3)c(C(=O)N3CCOCC3)c2c1 showed a displacement of 8.6%. COc1ccc(OC)c(-n2c(O)c(C=NCc3ccc(F)cc3)c(=O)[nH]c2=O)c1 gave a displacement of 7.9%. Compound COc1ccc(C(=O)/C=C/c2cc3c(cc2Br)OCO3)cc1OC has a displacement of 9.1%. In the case of CC1C2C=CC(C1C(=O)N(C=O)c1cccc([N+](=O)[O-])c1)C2C1=CCCC1 (stereo not drawn), the displacement is reported as 2.1%. With O=C(c1ccc(Cl)cc1[N+](=O)[O-])N1CCN(C/C=C/c2ccccc2)CC1 the displacement was -5.5%. In the case of CC(Nc1cc(N2CCN(C)CC2)ccc1[N+](=O)[O-])c1ccc(Br)cc1 (stereo not drawn), the displacement is reported as 9.3%. In the case of Cc1nn(C(=O)C23CC4CC(CC(C4)C2)C3)c(C)c1Sc1ccc([N+](=O)[O-])cc1, the displacement is reported as 7.2%. With Cc1ccc(-c2nc(N/N=C/c3cccc([N+](=O)[O-])c3)c3ccccc3n2)cc1 the displacement was 2.6%. COc1cc(NC(=O)c2ccc([N+](=O)[O-])cc2)ccc1NC(=O)c1cc2ccccc2o1 showed a displacement of 2%. O=C(CCC1CCCCC1)Nc1ccncc1 was tested, and the displacement was 7.8%. Compound NC1=NC(=O)/C(=C/c2ccc(OS(=O)(=O)c3ccc([N+](=O)[O-])cc3)c(Br)c2)S1 has a displacement of -5.9%. In the case of COc1ccc(-c2csc(/C(C#N)=C/c3sccc3C)n2)cc1OC, the displacement is reported as 181%. Work on CC(C)OC(=O)CC(O)(c1ccccc1)C(F)(F)C(F)F (stereo not drawn) yielded a displacement of -12.3%. Compound COc1ccccc1-c1c(C(F)(F)F)oc2c(CN3CCOCC3)c(O)ccc2c1=O has a displacement of 7%. Work on COc1ccc(/C=N/NC(=O)C(C)Nc2ccc(Cl)cc2)c(OC)c1 (stereo not drawn) yielded a displacement of 15.4%. With O=C(Cn1cc(/C=C2\SC(=S)NC2=O)c2ccccc21)Nc1ccccc1 the displacement was -11.9%. For COc1ccc(N(CC(=O)Nc2cc(Cl)cc(Cl)c2)S(=O)(=O)c2ccccc2)cc1, the displacement was 9.7%. With COc1ccc(C2C(C#N)=C(N)Oc3[nH]c(=O)[nH]c(=O)c32)c(OC)c1 (stereo not drawn) the displacement was -1.8%. CCOC(=O)c1c(NC(=O)Cc2ccc(Cl)cc2)sc(C(=O)Nc2cccc(OC)c2)c1C was tested, and the displacement was -8.1%. Work on COc1ccccc1CC(=O)Nc1cccc(C)c1 yielded a displacement of -1.8%. Work on COC(=O)C1=C(C)N(C)C(=O)/C1=C\c1ccc(Br)cc1 yielded a displacement of -10.3%. Compound CS(=O)(=O)N(CC(=O)NCc1ccco1)c1ccc(Oc2ccccc2)cc1 has a displacement of 6.6%. For CCOc1cccc(=O)c2c(C)n(-c3ccc(C)cc3)c(C)c12, the displacement was 10.2%. In the case of CCOC(=O)C1=C(C)NC2=C(C(=O)CC(C)(C)C2)C1c1ccc(OC(F)F)cc1 (stereo not drawn), the displacement is reported as -0.2%. COc1ccc(C2/C(=C(\O)c3ccc([N+](=O)[O-])cc3)C(=O)C(=O)N2CCCCCC(=O)O)cc1OC (stereo not drawn) was tested, and the displacement was -26%. With Cc1cccc(C(=O)N/C(=C/c2ccco2)C(=O)N2CCCC2)c1 the displacement was 17.5%. CCOc1cc(C(=O)Nc2ccc3c(c2)OCCO3)cc(OCC)c1OCC showed a displacement of -7.7%. Compound Cc1ccc(-n2c(C)cc(C=O)c2C)cc1C has a displacement of 13.4%. With Cc1occc1-c1nc(Cc2ccc(Cl)cc2)no1 the displacement was 3%. Work on Cc1cccc(N/C(=N\c2nc(C)cc(C)n2)NC(=O)c2ccccc2)c1 yielded a displacement of 2%.
